Measured values as given in paper PMC10923931.
These are yes or no findings as the source states them, for the method shown. For some of these results: Binding seen in cells or lysates may run through a third protein. Some binding calls cover weakened binding; strength is not graded here. For some of these results: Sequences can lack the tags named with a protein. Blank lines part the entries; values can stand above or below the molecule they belong to.

The chains behind the UniProt entries cited, without tags or fusion partners. Residues count along the entry.
UniProt O22476, residues 24-1196: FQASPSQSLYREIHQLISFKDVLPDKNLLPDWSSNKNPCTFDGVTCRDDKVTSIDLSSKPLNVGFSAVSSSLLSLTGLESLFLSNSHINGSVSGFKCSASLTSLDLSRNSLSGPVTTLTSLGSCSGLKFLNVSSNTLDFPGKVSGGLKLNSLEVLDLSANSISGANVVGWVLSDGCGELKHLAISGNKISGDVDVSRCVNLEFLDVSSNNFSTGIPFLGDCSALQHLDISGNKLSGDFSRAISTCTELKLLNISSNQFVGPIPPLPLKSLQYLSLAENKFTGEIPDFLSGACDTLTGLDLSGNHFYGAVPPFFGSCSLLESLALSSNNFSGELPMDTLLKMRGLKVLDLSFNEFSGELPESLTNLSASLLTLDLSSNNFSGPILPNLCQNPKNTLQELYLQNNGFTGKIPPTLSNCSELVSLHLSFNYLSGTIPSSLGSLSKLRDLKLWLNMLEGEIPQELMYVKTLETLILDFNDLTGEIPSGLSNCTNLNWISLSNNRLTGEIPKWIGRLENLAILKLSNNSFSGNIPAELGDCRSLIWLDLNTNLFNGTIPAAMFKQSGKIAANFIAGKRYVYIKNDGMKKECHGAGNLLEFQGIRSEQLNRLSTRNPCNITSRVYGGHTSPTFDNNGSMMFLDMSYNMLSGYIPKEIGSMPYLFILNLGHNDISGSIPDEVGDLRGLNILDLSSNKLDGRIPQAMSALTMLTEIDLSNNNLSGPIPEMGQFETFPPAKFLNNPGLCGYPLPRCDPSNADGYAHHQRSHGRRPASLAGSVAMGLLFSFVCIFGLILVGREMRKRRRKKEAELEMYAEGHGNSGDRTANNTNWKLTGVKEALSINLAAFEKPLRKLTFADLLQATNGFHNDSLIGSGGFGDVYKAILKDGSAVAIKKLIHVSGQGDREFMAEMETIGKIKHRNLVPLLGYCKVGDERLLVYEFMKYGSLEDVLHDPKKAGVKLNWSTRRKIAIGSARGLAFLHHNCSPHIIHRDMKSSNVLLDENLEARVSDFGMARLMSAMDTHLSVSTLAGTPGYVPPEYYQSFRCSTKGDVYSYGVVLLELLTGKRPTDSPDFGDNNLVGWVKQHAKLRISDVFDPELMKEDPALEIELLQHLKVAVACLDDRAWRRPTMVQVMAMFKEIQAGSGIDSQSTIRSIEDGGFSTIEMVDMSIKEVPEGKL

Experiments:
[1] = target: T1, SERK4-FLAG (Arabidopsis thaliana) (UniProt Q9SKG5); experiment: co-IP; total proteins of 10-day-old Arabidopsis seedlings (pad4-1 and bon1-1 bon2-2 bon3-3 pad4-1), mock or eBL treated; anti-FLAG beads for SERK4-FLAG, α-SERK3 on IgG magnetic beads for SERK3; BRI1 detected with α-BRI1
T1 sequence: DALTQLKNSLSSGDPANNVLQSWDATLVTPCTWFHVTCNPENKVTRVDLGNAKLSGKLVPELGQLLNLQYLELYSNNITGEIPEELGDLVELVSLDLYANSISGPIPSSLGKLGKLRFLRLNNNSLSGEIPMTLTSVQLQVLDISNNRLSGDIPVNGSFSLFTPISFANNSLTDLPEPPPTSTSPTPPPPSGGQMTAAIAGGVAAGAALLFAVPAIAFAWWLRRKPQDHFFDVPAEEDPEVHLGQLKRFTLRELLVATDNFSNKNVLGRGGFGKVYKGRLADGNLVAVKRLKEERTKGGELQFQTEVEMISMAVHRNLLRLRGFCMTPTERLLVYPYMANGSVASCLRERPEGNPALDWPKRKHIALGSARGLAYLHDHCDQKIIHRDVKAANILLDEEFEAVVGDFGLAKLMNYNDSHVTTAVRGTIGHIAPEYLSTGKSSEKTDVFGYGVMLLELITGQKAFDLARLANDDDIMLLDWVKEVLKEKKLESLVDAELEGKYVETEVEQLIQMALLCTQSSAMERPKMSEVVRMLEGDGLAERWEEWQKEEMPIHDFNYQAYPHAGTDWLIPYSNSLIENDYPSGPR

[2] = target: T2, SERK3 (native, in Arabidopsis seedlings) (Arabidopsis thaliana (endogenous in seedlings)) (UniProt Q94F62); experiment: as above
T2 sequence: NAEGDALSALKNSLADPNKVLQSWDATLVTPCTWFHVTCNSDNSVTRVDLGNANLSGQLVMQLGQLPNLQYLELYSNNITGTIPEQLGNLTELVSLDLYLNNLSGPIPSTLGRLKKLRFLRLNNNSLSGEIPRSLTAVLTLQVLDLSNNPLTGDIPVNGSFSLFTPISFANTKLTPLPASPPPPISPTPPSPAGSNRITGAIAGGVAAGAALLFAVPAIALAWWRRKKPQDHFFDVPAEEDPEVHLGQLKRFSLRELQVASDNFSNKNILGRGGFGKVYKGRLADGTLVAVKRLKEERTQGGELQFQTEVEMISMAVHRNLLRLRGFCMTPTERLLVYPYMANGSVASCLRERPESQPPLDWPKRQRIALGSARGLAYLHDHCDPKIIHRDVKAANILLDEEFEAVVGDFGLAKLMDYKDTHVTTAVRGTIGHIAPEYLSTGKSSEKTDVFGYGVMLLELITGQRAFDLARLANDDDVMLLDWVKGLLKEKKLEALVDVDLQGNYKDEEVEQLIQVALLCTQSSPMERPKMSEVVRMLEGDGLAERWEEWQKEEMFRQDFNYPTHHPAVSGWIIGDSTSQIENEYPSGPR

[3] = target: T3, BON1 in pCAMBIA1300-cLuc (Arabidopsis thaliana) (UniProt Q941L3); experiment: split reporter; split luciferase complementation (SLC); cLuc and nLuc fusions co-expressed in N. benthamiana leaves by Agrobacterium, imaged 2 days post inoculation
T3 sequence: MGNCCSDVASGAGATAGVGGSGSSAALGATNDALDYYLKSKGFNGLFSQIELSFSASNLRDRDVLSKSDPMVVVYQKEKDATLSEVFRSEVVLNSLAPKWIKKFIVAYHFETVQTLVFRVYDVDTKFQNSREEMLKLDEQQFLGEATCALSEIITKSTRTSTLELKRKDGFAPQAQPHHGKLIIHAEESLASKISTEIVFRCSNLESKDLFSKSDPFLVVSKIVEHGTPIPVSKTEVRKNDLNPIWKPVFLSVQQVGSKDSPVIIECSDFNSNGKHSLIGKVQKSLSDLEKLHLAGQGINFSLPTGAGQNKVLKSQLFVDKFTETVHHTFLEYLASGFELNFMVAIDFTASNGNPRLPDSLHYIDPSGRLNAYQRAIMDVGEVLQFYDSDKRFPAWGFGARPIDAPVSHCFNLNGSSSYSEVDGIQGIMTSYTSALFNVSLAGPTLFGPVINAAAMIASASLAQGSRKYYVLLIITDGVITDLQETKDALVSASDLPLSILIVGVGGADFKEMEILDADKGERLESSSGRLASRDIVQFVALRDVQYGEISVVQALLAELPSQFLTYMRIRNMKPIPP

[4] = target: T4, BON1-HA (Arabidopsis thaliana) (UniProt Q941L3); experiment: co-IP; Arabidopsis Col-0 protoplasts co-transfected, 18 h; extracts incubated with anti-HA beads 4 h at 4 °C, washed four times with TBS; blots with anti-HA, anti-FLAG or anti-GFP
T4 sequence: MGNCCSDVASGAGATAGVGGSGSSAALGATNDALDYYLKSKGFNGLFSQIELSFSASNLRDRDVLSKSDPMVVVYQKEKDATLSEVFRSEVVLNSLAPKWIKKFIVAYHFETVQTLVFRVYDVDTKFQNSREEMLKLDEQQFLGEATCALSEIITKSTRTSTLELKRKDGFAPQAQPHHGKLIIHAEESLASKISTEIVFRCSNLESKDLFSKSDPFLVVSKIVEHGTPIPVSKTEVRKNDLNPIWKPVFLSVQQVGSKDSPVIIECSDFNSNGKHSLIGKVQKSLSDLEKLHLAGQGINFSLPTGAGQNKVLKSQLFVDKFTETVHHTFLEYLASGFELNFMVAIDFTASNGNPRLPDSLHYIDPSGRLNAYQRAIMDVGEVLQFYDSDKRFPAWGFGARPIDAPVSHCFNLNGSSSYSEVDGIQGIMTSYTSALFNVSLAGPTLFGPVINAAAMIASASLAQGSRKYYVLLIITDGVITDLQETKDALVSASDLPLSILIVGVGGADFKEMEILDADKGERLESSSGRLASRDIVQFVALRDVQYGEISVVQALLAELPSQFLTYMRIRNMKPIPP

[5] = target: T5, BON1-A (C-terminal A domain of BON1, from Val-319 to Pro-578), bait in pGBKT7 (Arabidopsis thaliana) (UniProt Q941L3); experiment: two-hybrid; pairwise co-transformation of pGBKT7 and pGADT7 constructs into yeast strain Y2H Gold; growth on SC -Leu/-Trp and SC -Ade/-His/-Leu/-Trp with X-a-Gal
T5 sequence: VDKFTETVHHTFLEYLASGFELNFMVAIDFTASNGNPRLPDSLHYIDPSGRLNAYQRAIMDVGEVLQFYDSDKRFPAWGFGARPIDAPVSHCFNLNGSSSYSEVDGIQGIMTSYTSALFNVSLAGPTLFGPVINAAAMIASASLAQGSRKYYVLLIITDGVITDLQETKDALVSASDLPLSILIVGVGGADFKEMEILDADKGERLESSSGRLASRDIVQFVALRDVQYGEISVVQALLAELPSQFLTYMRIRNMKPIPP

binding [1]: binds | binding [2]: binds
Molecule: BRI1 (native, in Arabidopsis seedlings) (from UniProt O22476 24-1196) (receptor)

binding [3]: binds
B1: SERK1 in pCAMBIA1300-nLuc (receptor, UniProt Q94AG2 27-625)
chain: NLEGDALHTLRVTLVDPNNVLQSWDPTLVNPCTWFHVTCNNENSVIRVDLGNAELSGHLVPELGVLKNLQYLELYSNNITGPIPSNLGNLTNLVSLDLYLNSFSGPIPESLGKLSKLRFLRLNNNSLTGSIPMSLTNITTLQVLDLSNNRLSGSVPDNGSFSLFTPISFANNLDLCGPVTSHPCPGSPPFSPPPPFIQPPPVSTPSGYGITGAIAGGVAAGAALLFAAPAIAFAWWRRRKPLDIFFDVPAEEDPEVHLGQLKRFSLRELQVASDGFSNKNILGRGGFGKVYKGRLADGTLVAVKRLKEERTPGGELQFQTEVEMISMAVHRNLLRLRGFCMTPTERLLVYPYMANGSVASCLRERPPSQPPLDWPTRKRIALGSARGLSYLHDHCDPKIIHRDVKAANILLDEEFEAVVGDFGLAKLMDYKDTHVTTAVRGTIGHIAPEYLSTGKSSEKTDVFGYGIMLLELITGQRAFDLARLANDDDVMLLDWVKGLLKEKKLEMLVDPDLQTNYEERELEQVIQVALLCTQGSPMERPKMSEVVRMLEGDGLAEKWDEWQKVEILREEIDLSPNPNSDWILDSTYNLHAVELSGPR

binding [4]: binds
B2: SERK4-FLAG (receptor, UniProt Q9SKG5 34-620)
chain: DALTQLKNSLSSGDPANNVLQSWDATLVTPCTWFHVTCNPENKVTRVDLGNAKLSGKLVPELGQLLNLQYLELYSNNITGEIPEELGDLVELVSLDLYANSISGPIPSSLGKLGKLRFLRLNNNSLSGEIPMTLTSVQLQVLDISNNRLSGDIPVNGSFSLFTPISFANNSLTDLPEPPPTSTSPTPPPPSGGQMTAAIAGGVAAGAALLFAVPAIAFAWWLRRKPQDHFFDVPAEEDPEVHLGQLKRFTLRELLVATDNFSNKNVLGRGGFGKVYKGRLADGNLVAVKRLKEERTKGGELQFQTEVEMISMAVHRNLLRLRGFCMTPTERLLVYPYMANGSVASCLRERPEGNPALDWPKRKHIALGSARGLAYLHDHCDQKIIHRDVKAANILLDEEFEAVVGDFGLAKLMNYNDSHVTTAVRGTIGHIAPEYLSTGKSSEKTDVFGYGVMLLELITGQKAFDLARLANDDDIMLLDWVKEVLKEKKLESLVDAELEGKYVETEVEQLIQMALLCTQSSAMERPKMSEVVRMLEGDGLAERWEEWQKEEMPIHDFNYQAYPHAGTDWLIPYSNSLIENDYPSGPR

binding [3]: binds
B3: SERK4 in pCAMBIA1300-nLuc (receptor, UniProt Q9SKG5 34-620)
chain: DALTQLKNSLSSGDPANNVLQSWDATLVTPCTWFHVTCNPENKVTRVDLGNAKLSGKLVPELGQLLNLQYLELYSNNITGEIPEELGDLVELVSLDLYANSISGPIPSSLGKLGKLRFLRLNNNSLSGEIPMTLTSVQLQVLDISNNRLSGDIPVNGSFSLFTPISFANNSLTDLPEPPPTSTSPTPPPPSGGQMTAAIAGGVAAGAALLFAVPAIAFAWWLRRKPQDHFFDVPAEEDPEVHLGQLKRFTLRELLVATDNFSNKNVLGRGGFGKVYKGRLADGNLVAVKRLKEERTKGGELQFQTEVEMISMAVHRNLLRLRGFCMTPTERLLVYPYMANGSVASCLRERPEGNPALDWPKRKHIALGSARGLAYLHDHCDQKIIHRDVKAANILLDEEFEAVVGDFGLAKLMNYNDSHVTTAVRGTIGHIAPEYLSTGKSSEKTDVFGYGVMLLELITGQKAFDLARLANDDDIMLLDWVKEVLKEKKLESLVDAELEGKYVETEVEQLIQMALLCTQSSAMERPKMSEVVRMLEGDGLAERWEEWQKEEMPIHDFNYQAYPHAGTDWLIPYSNSLIENDYPSGPR

binding [3]: binds
B4: SERK2 in pCAMBIA1300-nLuc (receptor, UniProt Q9XIC7 30-628)
chain: NMEGDALHSLRANLVDPNNVLQSWDPTLVNPCTWFHVTCNNENSVIRVDLGNADLSGQLVPQLGQLKNLQYLELYSNNITGPVPSDLGNLTNLVSLDLYLNSFTGPIPDSLGKLFKLRFLRLNNNSLTGPIPMSLTNIMTLQVLDLSNNRLSGSVPDNGSFSLFTPISFANNLDLCGPVTSRPCPGSPPFSPPPPFIPPPIVPTPGGYSATGAIAGGVAAGAALLFAAPALAFAWWRRRKPQEFFFDVPAEEDPEVHLGQLKRFSLRELQVATDSFSNKNILGRGGFGKVYKGRLADGTLVAVKRLKEERTPGGELQFQTEVEMISMAVHRNLLRLRGFCMTPTERLLVYPYMANGSVASCLRERPPSQLPLAWSIRQQIALGSARGLSYLHDHCDPKIIHRDVKAANILLDEEFEAVVGDFGLARLMDYKDTHVTTAVRGTIGHIAPEYLSTGKSSEKTDVFGYGIMLLELITGQRAFDLARLANDDDVMLLDWVKGLLKEKKLEMLVDPDLQSNYTEAEVEQLIQVALLCTQSSPMERPKMSEVVRMLEGDGLAEKWDEWQKVEVLRQEVELSSHPTSDWILDSTDNLHAMELSGPR

binding [5]: no binding
B5: TTL4 in pGADT7 (protein, UniProt Q84JR9 1-682)
chain: MSHYRRHSLEPSITSKFRDSLSFQRDDDVINKPDFRELDFGSPLRPRGSSSAAATPAASGSSSSSSGSASGKPAVTSQFARRSHSGELSGLSQTSPVKPGSVNRNLKPGHRRSASAGTPLIYSGLGFSPVNNNNNSSRGGGSGATSPNPGVLPTGNICPSGRILKTGMATRASVRPETLCTGTANYGHGNIIRTGGKVSHATKAAAEMSDSEEVKKAGNVMYRKGNYAEALALYDRAISLSPENPAYRSNRAAALAASGRLEEAVKECLEAVRCDPSYARAHQRLASLYLRLGEAENARRHLCVSGQCPDQADLQRLQTLEKHLRLCTEARKIGDWRTVISEIDAAIANGADSSPQLVACKAEAFLRLHQIKDSDLCISSIPRLDHHHTQPPEKLFGIVCDAYVLCVQAQVDMALGRFENAIVKVERAMTIDHSNSPEVVSVLNNVKNVAKARTRGNELFSSGRYSEASVAYGDGLKLDAFNSVLYCNRAACWFKLGMWEKSVDDCNQALRIQPSYTKALLRRAASYGKLGRWEDAVRDYEVLRKELPGDSEVAESLQRARNALSNKSEEPKYLGFNNEVEEVSTLDKFKTATSLPGISVFHFKSSSNRQSEAISPFVNTLCLRYPLVHFFKVDVEESLALAKAESIKKIPTFKIYKKGEKVKEMVCPSHQLLEDSVTHFLL
